Experimental data published in patent publication US20090208481A1, “Proteomic analysis of active multiple sclerosis lesions” (published 2009).
Blank lines part the entries; values can stand above or below the binder they belong to.

Molecular target: Protease Activated Receptor 1 (PAR-1) (Homo sapiens (Human), UniProt P25116)
Experiment: cell-based or functional assay

PAR-1 (relative activity): 0.02 relative activity
B1: recombinant human aPC-L8W (enzyme)
chain: not shown

PAR-1 (relative activity): 1 relative activity
B2: recombinant human aPC-K193E (enzyme)
chain: not shown
